Results published in the supplement of paper PMC8728848.
The list shows a part of the results.

Columns and labels:
Assay in all cases: glycan array binding signal (z-score within array); higher = stronger binding
Settings in all cases: glycan notation: IUPAC condensed, linker removed
[1] = target: Fuc(a1-2)[Gal(a1-3)]Gal(b1-4)GlcNAc(b1-2)Man(a1-3)[Fuc(a1-2)[Gal(a1-3)]Gal(b1-4)GlcNAc(b1-2)Man(a1-6)]Man(b1-4)GlcNAc(b1-4)[Fuc(a1-6)]GlcNAc
Method in brief: (§1)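 The binding signal is a Z-score computed within each array and averaged over linkers. Arrays of the same protein sequence at different concentrations or buffers were also averaged together. Data originate from 3228 arrays in the Consortium for Functional Glycomics database, kept only where the protein sequence was available.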

[2] = target: Fuc(a1-2)[Gal(a1-3)]Gal(b1-4)GlcNAc(b1-3)GalNAc
Method in brief: as §1

[3] = target: Fuc(a1-2)[Gal(a1-3)]Gal(b1-4)GlcNAc(b1-3)[Fuc(a1-2)[Gal(a1-3)]Gal(b1-4)GlcNAc(b1-6)]GalNAc
Method in brief: as §1

[4] = target: Fuc(a1-2)[Gal(a1-3)]Gal(b1-4)GlcNAc(b1-6)GalNAc
Method in brief: as §1

[5] = target: Fuc(a1-2)[Gal(a1-3)]Gal(b1-4)[Fuc(a1-3)]Glc
Method in brief: as §1

[6] = target: Fuc(a1-2)[Gal(a1-3)]Gal(b1-4)[Fuc(a1-3)]GlcNAc
Method in brief: as §1

[7] = target: Fuc(a1-2)[Gal(a1-3)]Gal(b1-4)[Fuc(a1-3)]GlcNAc(b1-3)GalNAc
Method in brief: as §1

[8] = target: Fuc(a1-2)[Gal(a1-4)]Gal(b1-4)GlcNAc
Method in brief: as §1

[9] = target: Fuc(a1-2)[GalNAc(a1-3)]Gal
Method in brief: as §1

[10] = target: Fuc(a1-2)[GalNAc(a1-3)]Gal(b1-3)GalNAc(a1-3)[Fuc(a1-2)]Gal(b1-4)GlcNAc
Method in brief: as §1

[11] = target: Fuc(a1-2)[GalNAc(a1-3)]Gal(b1-3)GalNAc(b1-3)Gal(a1-4)Gal(b1-4)Glc
Method in brief: as §1

[12] = target: Fuc(a1-2)[GalNAc(a1-3)]Gal(b1-3)GlcNAc
Method in brief: as §1

[13] = target: Fuc(a1-2)[GalNAc(a1-3)]Gal(b1-3)GlcNAc(b1-2)Man(a1-3)[Fuc(a1-2)[GalNAc(a1-3)]Gal(b1-3)GlcNAc(b1-2)Man(a1-6)]Man(b1-4)GlcNAc(b1-4)GlcNAc
Method in brief: as §1

[14] = target: Fuc(a1-2)[GalNAc(a1-3)]Gal(b1-3)GlcNAc(b1-2)Man(a1-3)[Fuc(a1-2)[GalNAc(a1-3)]Gal(b1-3)GlcNAc(b1-2)Man(a1-6)]Man(b1-4)GlcNAc(b1-4)[Fuc(a1-6)]GlcNAc
Method in brief: as §1

[15] = target: Fuc(a1-2)[GalNAc(a1-3)]Gal(b1-3)GlcNAc(b1-3)GalNAc
Method in brief: as §1

[16] = target: Fuc(a1-2)[GalNAc(a1-3)]Gal(b1-3)GlcNAc(b1-6)GalNAc
Method in brief: as §1

[17] = target: Fuc(a1-2)[GalNAc(a1-3)]Gal(b1-4)Glc
Method in brief: as §1

[18] = target: Fuc(a1-2)[GalNAc(a1-3)]Gal(b1-4)GlcNAc
Method in brief: as §1

[19] = target: Fuc(a1-2)[GalNAc(a1-3)]Gal(b1-4)GlcNAc(b1-2)Man
Method in brief: as §1

[20] = target: Fuc(a1-2)[GalNAc(a1-3)]Gal(b1-4)GlcNAc(b1-2)Man(a1-3)[Fuc(a1-2)[GalNAc(a1-3)]Gal(b1-4)GlcNAc(b1-2)Man(a1-6)]Man(b1-4)GlcNAc(b1-4)GlcNAc
Method in brief: as §1

[21] = target: Fuc(a1-2)[GalNAc(a1-3)]Gal(b1-4)GlcNAc(b1-2)Man(a1-3)[Fuc(a1-2)[GalNAc(a1-3)]Gal(b1-4)GlcNAc(b1-2)Man(a1-6)]Man(b1-4)GlcNAc(b1-4)[Fuc(a1-6)]GlcNAc
Method in brief: as §1

[22] = target: Fuc(a1-2)[GalNAc(a1-3)]Gal(b1-4)GlcNAc(b1-3)Gal(b1-4)GlcNAc
Method in brief: as §1

[23] = target: Fuc(a1-2)[GalNAc(a1-3)]Gal(b1-4)GlcNAc(b1-3)Gal(b1-4)GlcNAc(b1-3)Gal(b1-4)GlcNAc
Method in brief: as §1

[24] = target: Fuc(a1-2)[GalNAc(a1-3)]Gal(b1-4)GlcNAc(b1-3)GalNAc
Method in brief: as §1

[25] = target: Fuc(a1-2)[GalNAc(a1-3)]Gal(b1-4)GlcNAc(b1-3)[Fuc(a1-2)[GalNAc(a1-3)]Gal(b1-4)GlcNAc(b1-6)]GalNAc
Method in brief: as §1

[26] = target: Fuc(a1-2)[GalNAc(a1-3)]Gal(b1-4)GlcNAc(b1-6)GalNAc
Method in brief: as §1

[27] = target: Fuc(a1-2)[GalNAc(a1-3)]Gal(b1-4)[Fuc(a1-3)]GlcNAc
Method in brief: as §1

[28] = target: Fuc(a1-2)[GalNAc(a1-3)]Gal(b1-4)[Fuc(a1-3)]GlcNAc(b1-3)GalNAc
Method in brief: as §1

[29] = target: Fuc(a1-2)[GalNAc(a1-4)]Gal(b1-4)GlcNAc
Method in brief: as §1

[30] = target: Fuc(a1-2)[GalNAc(b1-3)]Gal
Method in brief: as §1

Fuc(a1-3)GlcNAc = target: Fuc(a1-3)GlcNAc
Method in brief: as §1

[31] = target: Fuc(a1-3)[Gal(b1-4)]Glc6S
Method in brief: as §1

[32] = target: Fuc(a1-3)[Gal(b1-4)]GlcNAc
Method in brief: as §1

[33] = target: Fuc(a1-3)[Gal(b1-4)]GlcNAc(b1-2)Man
Method in brief: as §1

[34] = target: Fuc(a1-3)[Gal(b1-4)]GlcNAc(b1-2)Man(a1-3)[Fuc(a1-3)[Gal(b1-4)]GlcNAc(b1-2)Man(a1-6)]Man(b1-4)GlcNAc(b1-4)GlcNAc
Method in brief: as §1

[35] = target: Fuc(a1-3)[Gal(b1-4)]GlcNAc(b1-2)Man(a1-3)[Fuc(a1-3)[Gal(b1-4)]GlcNAc(b1-2)Man(a1-6)]Man(b1-4)GlcNAc(b1-4)[Fuc(a1-6)]GlcNAc
Method in brief: as §1

[36] = target: Fuc(a1-3)[Gal(b1-4)]GlcNAc(b1-3)Gal(b1-3)[Fuc(a1-4)]GlcNAc
Method in brief: as §1

[37] = target: Fuc(a1-3)[Gal(b1-4)]GlcNAc(b1-3)Gal(b1-4)[Fuc(a1-3)]GlcNAc
Method in brief: as §1

[38] = target: Fuc(a1-3)[Gal(b1-4)]GlcNAc(b1-3)Gal(b1-4)[Fuc(a1-3)]GlcNAc(b1-3)Gal(b1-4)[Fuc(a1-3)]GlcNAc
Method in brief: as §1

[39] = target: Fuc(a1-3)[Gal(b1-4)]GlcNAc(b1-3)GalNAc
Method in brief: as §1

[40] = target: Fuc(a1-3)[Gal(b1-4)]GlcNAc(b1-6)GalNAc
Method in brief: as §1

[41] = target: Fuc(a1-3)[Gal(b1-4)]GlcNAc(b1-6)[Gal(b1-3)GlcNAc(b1-3)]Gal(b1-4)Glc
Method in brief: as §1

[42] = target: Fuc(a1-3)[Gal(b1-4)]GlcNAc6S
Method in brief: as §1

[43] = target: Fuc(a1-3)[Gal3S(b1-4)]Glc
Method in brief: as §1

[44] = target: Fuc(a1-3)[Gal3S(b1-4)]GlcNAc
Method in brief: as §1

B1: EULS2 M2 (Oryza sativa) (protein)
chain: MVYCRANPNYAMTARNGAVVLAPANPKDEYQHWIKDMRWSTSIKDEEGYPAFALVNKATGQAIKHSLGQSHPVRLVPYNPEVMDESVLWTESRDVGNGFRCIRMVNNIYLNFDAFHGDKYHGGVRDGTDIVLWKLCEGDSQRWKIQPYYILEQKLISEEDLNSAVDHHHHHH
glycan array binding signal (z-score) [1]: -0.126 | glycan array binding signal (z-score) [2]: -0.48 | glycan array binding signal (z-score) [3]: -0.484 | glycan array binding signal (z-score) [4]: 0.234 | glycan array binding signal (z-score) [5]: 0.184 | glycan array binding signal (z-score) [6]: -0.305 | glycan array binding signal (z-score) [7]: 0.114 | glycan array binding signal (z-score) [8]: -0.494 | glycan array binding signal (z-score) [9]: -0.198 | glycan array binding signal (z-score) [10]: -0.386 | glycan array binding signal (z-score) [11]: -0.363 | glycan array binding signal (z-score) [12]: -0.454 | glycan array binding signal (z-score) [13]: -0.316 | glycan array binding signal (z-score) [14]: -0.503 | glycan array binding signal (z-score) [15]: -0.599 | glycan array binding signal (z-score) [16]: 1.16 | glycan array binding signal (z-score) [17]: 0.073 | glycan array binding signal (z-score) [18]: -0.633 | glycan array binding signal (z-score) [19]: -0.252 | glycan array binding signal (z-score) [20]: -0.088 | glycan array binding signal (z-score) [21]: -0.069 | glycan array binding signal (z-score) [22]: -0.383 | glycan array binding signal (z-score) [23]: -0.134 | glycan array binding signal (z-score) [24]: 0.869 | glycan array binding signal (z-score) [25]: -0.329 | glycan array binding signal (z-score) [26]: -0.496 | glycan array binding signal (z-score) [27]: -0.514 | glycan array binding signal (z-score) [28]: -0.09 | glycan array binding signal (z-score) [29]: -0.192 | glycan array binding signal (z-score) [30]: -0.03 | glycan array binding signal (z-score) (Fuc(a1-3)GlcNAc): -0.469 | glycan array binding signal (z-score) [31]: 0.658 | glycan array binding signal (z-score) [32]: -0.403 | glycan array binding signal (z-score) [33]: -0.319 | glycan array binding signal (z-score) [34]: 0.029 | glycan array binding signal (z-score) [35]: -0.168 | glycan array binding signal (z-score) [36]: 0.378 | glycan array binding signal (z-score) [37]: 0.057 | glycan array binding signal (z-score) [38]: -0.784 | glycan array binding signal (z-score) [39]: -0.239 | glycan array binding signal (z-score) [40]: -0.155 | glycan array binding signal (z-score) [41]: -0.214 | glycan array binding signal (z-score) [42]: -0.32 | glycan array binding signal (z-score) [43]: 0.041 | glycan array binding signal (z-score) [44]: -0.355
